# Results taken from PMC9911399, “Two distinct binding modes provide the RNA-binding protein RbFox with extraordinary sequence specificity”.
# Positions count from the first letter of the chain named. This is one part of the list.
# T1: RBFOX1 RRM RbFoxmut (Fox-RRM*) (Homo sapiens, UniProt Q9NWB1 109-208, R118D;E147R;N151S;E152T)
# T1 sequence: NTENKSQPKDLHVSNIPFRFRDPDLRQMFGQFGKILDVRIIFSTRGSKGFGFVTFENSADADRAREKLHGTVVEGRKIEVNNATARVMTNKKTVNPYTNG
# B1: CCUUUAG (DNA:RNA)
# RNA: GGGAGACCGGAAUUCAGAUUGUCCCCUUUAGUUAAAUCCCGUCGUAGCCACCA
# DNA 1: CAATCTGAATTCCGGTCTCCC
# DNA 2: TGGTGGCTACGACGGGATT
# B2: CGCUGCA (DNA:RNA)
# RNA: B1 RNA with C26G, U27C, U29G, A30C, G31A
# DNA 1: CAATCTGAATTCCGGTCTCCC
# DNA 2: TGGTGGCTACGACGGGATT
# B3: UAAUGCC (DNA:RNA)
# RNA: B1 RNA with C25U, C26A, U27A, U29G, A30C, G31C
# DNA 1: CAATCTGAATTCCGGTCTCCC
# DNA 2: TGGTGGCTACGACGGGATT
# B4: UACACUG (DNA:RNA)
# RNA: B1 RNA with C25U, C26A, U27C, U28A, U29C, A30U
# DNA 1: CAATCTGAATTCCGGTCTCCC
# DNA 2: TGGTGGCTACGACGGGATT
# B5: AAUUACA (DNA:RNA)
# RNA: B1 RNA with C25A, C26A, U29A, A30C, G31A
# DNA 1: CAATCTGAATTCCGGTCTCCC
# DNA 2: TGGTGGCTACGACGGGATT
# B6: AUGUCCA (DNA:RNA)
# RNA: B1 RNA with C25A, C26U, U27G, U29C, A30C, G31A
# DNA 1: CAATCTGAATTCCGGTCTCCC
# DNA 2: TGGTGGCTACGACGGGATT
# B7: GGUUCCG (DNA:RNA)
# RNA: B1 RNA with C25G, C26G, U29C, A30C
# DNA 1: CAATCTGAATTCCGGTCTCCC
# DNA 2: TGGTGGCTACGACGGGATT
# B8: GACGUGG (DNA:RNA)
# RNA: B1 RNA with C25G, C26A, U27C, U28G, A30G
# DNA 1: CAATCTGAATTCCGGTCTCCC
# DNA 2: TGGTGGCTACGACGGGATT
# B9: GAUGGUG (DNA:RNA)
# RNA: B1 RNA with C25G, C26A, U28G, U29G, A30U
# DNA 1: CAATCTGAATTCCGGTCTCCC
# DNA 2: TGGTGGCTACGACGGGATT
# B10: GUGCGAA (DNA:RNA)
# RNA: B1 RNA with C25G, C26U, U27G, U28C, U29G, G31A
# DNA 1: CAATCTGAATTCCGGTCTCCC
# DNA 2: TGGTGGCTACGACGGGATT
# B11: ACAACGC (DNA:RNA)
# RNA: B1 RNA with C25A, U27A, U28A, U29C, A30G, G31C
# DNA 1: CAATCTGAATTCCGGTCTCCC
# DNA 2: TGGTGGCTACGACGGGATT
# B12: CAACCAC (DNA:RNA)
# RNA: B1 RNA with C26A, U27A, U28C, U29C, G31C
# DNA 1: CAATCTGAATTCCGGTCTCCC
# DNA 2: TGGTGGCTACGACGGGATT
# B13: CGGCGAG (DNA:RNA)
# RNA: B1 RNA with C26G, U27G, U28C, U29G
# DNA 1: CAATCTGAATTCCGGTCTCCC
# DNA 2: TGGTGGCTACGACGGGATT
# B14: UCUUGAU (DNA:RNA)
# RNA: B1 RNA with C25U, U29G, G31U
# DNA 1: CAATCTGAATTCCGGTCTCCC
# DNA 2: TGGTGGCTACGACGGGATT
# B15: ACGGAUG (DNA:RNA)
# RNA: B1 RNA with C25A, U27G, U28G, U29A, A30U
# DNA 1: CAATCTGAATTCCGGTCTCCC
# DNA 2: TGGTGGCTACGACGGGATT
# B16: CUAAUCC (DNA:RNA)
# RNA: B1 RNA with C26U, U27A, U28A, A30C, G31C
# DNA 1: CAATCTGAATTCCGGTCTCCC
# DNA 2: TGGTGGCTACGACGGGATT
# B17: UUGAUCC (DNA:RNA)
# RNA: B1 RNA with C25U, C26U, U27G, U28A, A30C, G31C
# DNA 1: CAATCTGAATTCCGGTCTCCC
# DNA 2: TGGTGGCTACGACGGGATT
# B18: GAGGAGU (DNA:RNA)
# RNA: GGGAGACCGGAAUUCAGAUUGUCCGAGGAGUUUAAAUCCCGUCGUAGCCACCA
# DNA 1: CAATCTGAATTCCGGTCTCCC
# DNA 2: TGGTGGCTACGACGGGATT
# B19: UUUGAAA (DNA:RNA)
# RNA: B1 RNA with C25U, C26U, U28G, U29A, G31A
# DNA 1: CAATCTGAATTCCGGTCTCCC
# DNA 2: TGGTGGCTACGACGGGATT
# B20: CUAGCGC (DNA:RNA)
# RNA: B18 RNA with G25C, A26U, G27A, A29C, U31C
# DNA 1: CAATCTGAATTCCGGTCTCCC
# DNA 2: TGGTGGCTACGACGGGATT
# B21: CAUUAAU (DNA:RNA)
# RNA: B1 RNA with C26A, U29A, G31U
# DNA 1: CAATCTGAATTCCGGTCTCCC
# DNA 2: TGGTGGCTACGACGGGATT
# B22: CUUAGGC (DNA:RNA)
# RNA: B1 RNA with C26U, U28A, U29G, A30G, G31C
# DNA 1: CAATCTGAATTCCGGTCTCCC
# DNA 2: TGGTGGCTACGACGGGATT
# B23: AGCGGCA (DNA:RNA)
# RNA: B18 RNA with G25A, A26G, G27C, A29G, G30C, U31A
# DNA 1: CAATCTGAATTCCGGTCTCCC
# DNA 2: TGGTGGCTACGACGGGATT
# B24: ACAAGGC (DNA:RNA)
# RNA: B1 RNA with C25A, U27A, U28A, U29G, A30G, G31C
# DNA 1: CAATCTGAATTCCGGTCTCCC
# DNA 2: TGGTGGCTACGACGGGATT
# B25: GAUCGUA (DNA:RNA)
# RNA: B18 RNA with G27U, G28C, A29G, G30U, U31A
# DNA 1: CAATCTGAATTCCGGTCTCCC
# DNA 2: TGGTGGCTACGACGGGATT
# B26: CGCAUAU (DNA:RNA)
# RNA: B1 RNA with C26G, U27C, U28A, G31U
# DNA 1: CAATCTGAATTCCGGTCTCCC
# DNA 2: TGGTGGCTACGACGGGATT
# B27: AGAAGCA (DNA:RNA)
# RNA: GGGAGACCGGAAUUCAGAUUGUCCAGAAGCAUUAAAUCCCGUCGUAGCCACCA
# DNA 1: CAATCTGAATTCCGGTCTCCC
# DNA 2: TGGTGGCTACGACGGGATT
# B28: UAGUAUA (DNA:RNA)
# RNA: B18 RNA with G25U, G28U, G30U, U31A
# DNA 1: CAATCTGAATTCCGGTCTCCC
# DNA 2: TGGTGGCTACGACGGGATT
# B29: UAUAGGA (DNA:RNA)
# RNA: B27 RNA with A25U, G26A, A27U, C30G
# DNA 1: CAATCTGAATTCCGGTCTCCC
# DNA 2: TGGTGGCTACGACGGGATT
# B30: AGUUCAA (DNA:RNA)
# RNA: B27 RNA with A27U, A28U, G29C, C30A
# DNA 1: CAATCTGAATTCCGGTCTCCC
# DNA 2: TGGTGGCTACGACGGGATT
# B31: UUCCUCU (DNA:RNA)
# RNA: B27 RNA with A25U, G26U, A27C, A28C, G29U, A31U
# DNA 1: CAATCTGAATTCCGGTCTCCC
# DNA 2: TGGTGGCTACGACGGGATT
# Molecular target: T1, RBFOX1 RRM RbFoxmut (Fox-RRM*)
# Test: EMSA; HiTS-Eq, 1 nM pool, 10 min; buffer printed only for the single-RNA assays: 10 mM Tris pH 7.5, 150 mM NaCl, 3.4 mM EDTA, 0.001% NP-40, 30 C
# Conditions: tags: His6 N-terminal (pET28a); label: 5' 32P
# How it was run: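 Purified RbFox RRM, wild type or mutant, was incubated for 10 min in 50 µL with 1 nM of a 5′-radiolabelled RNA pool carrying 7 randomized nucleotides, whose flanks were annealed to DNA oligonucleotides, over a series of increasing protein concentrations. Unbound RNA was resolved on 8% native PAGE, cut out, reverse-transcribed, barcoded by PCR and sequenced on an Illumina HiSeq 2500. Relative association constants were derived from changes in read counts for each RNA species versus the control reaction and normalised to the cognate motif.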
row,Binder,binding signal
1,B1,0.139 KA relative to UGCAUGU
2,B2,0.236 KA relative to UGCAUGU
3,B3,0.164 KA relative to UGCAUGU
4,B4,0.0655 KA relative to UGCAUGU
5,B5,0.101 KA relative to UGCAUGU
6,B6,0.135 KA relative to UGCAUGU
7,B7,0.168 KA relative to UGCAUGU
8,B8,0.0986 KA relative to UGCAUGU
9,B9,0.118 KA relative to UGCAUGU
10,B10,0.129 KA relative to UGCAUGU
11,B11,0.073 KA relative to UGCAUGU
12,B12,0.11 KA relative to UGCAUGU
13,B13,0.119 KA relative to UGCAUGU
14,B14,0.0987 KA relative to UGCAUGU
15,B15,0.141 KA relative to UGCAUGU
16,B16,0.0531 KA relative to UGCAUGU

row,Binder,binding signal
1,B17,0.0834 KA relative to UGCAUGU
2,B18,0.109 KA relative to UGCAUGU
3,B19,0.0685 KA relative to UGCAUGU
4,B20,0.0883 KA relative to UGCAUGU
5,B21,0.113 KA relative to UGCAUGU
6,B22,0.101 KA relative to UGCAUGU
7,B23,0.113 KA relative to UGCAUGU
8,B24,0.103 KA relative to UGCAUGU
9,B25,0.142 KA relative to UGCAUGU
10,B26,0.138 KA relative to UGCAUGU
11,B27,0.124 KA relative to UGCAUGU
12,B28,0.142 KA relative to UGCAUGU
13,B29,0.0839 KA relative to UGCAUGU
14,B30,0.0774 KA relative to UGCAUGU
15,B31,0.0669 KA relative to UGCAUGU
